According to the BET-seq Pho4 binding data (Le et al. 2018):
The other results are listed elsewhere or left out. The energies were worked out here from pooled read counts, against the library average; single values are noisy.

biological target: T1, Pho4 (S. cerevisiae) (UniProt P07270); assay: relative binding free energy (BET-seq); higher = weaker binding; settings: reference: library average
T1 sequence: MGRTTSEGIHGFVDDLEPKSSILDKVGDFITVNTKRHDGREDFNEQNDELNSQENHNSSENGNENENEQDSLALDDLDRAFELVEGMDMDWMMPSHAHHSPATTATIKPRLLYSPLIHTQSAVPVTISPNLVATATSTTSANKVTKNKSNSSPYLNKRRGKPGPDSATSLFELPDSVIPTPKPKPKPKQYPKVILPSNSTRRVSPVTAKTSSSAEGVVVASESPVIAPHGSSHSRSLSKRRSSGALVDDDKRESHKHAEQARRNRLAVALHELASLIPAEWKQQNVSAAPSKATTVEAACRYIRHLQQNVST

Sequence	relative binding free energy [kcal/mol]
ATTAGCACGTGTAGTT	-0.04
GATGACACGTGAGGGG	0.39
TTTCACACGTGGTATT	-0.13
CTTAGCACGTGGTAAG	-0.1
TGTATCACGTGTGTCA	0.09
TTATGCACGTGAGAGG	0.22
TAGTCCACGTGTGTAT	0
TGGACCACGTGCGGTG	-0.06
CTTGGCACGTGTGTGT	-0.13
GGATTCACGTGAGAAG	0.49
ATAGACACGTGCTGTG	0.02
GATGTCACGTGAGAGG	0.41
CTAATCACGTGAGGGG	0.3
TTGCTCACGTGGGCAT	-0.04
GGAAGCACGTGCTGGG	-0.16
GGGGGCACGTGCAATG	-0.07
GTTTGCACGTGGGCCG	-0.08
TGGCGCACGTGAGGGT	0.14
ATCGGCACGTGCAGGG	-0.14
GGTGTCACGTGCTTGT	-0.04
GCGTGCACGTGGGAAG	-0.16

Sequence	relative binding free energy [kcal/mol]
GGGAGCACGTGCGATG	-0.05
TGGTTCACGTGTTATC	0.27
GGTTGCACGTGTGTGA	0.14
TCTTTCACGTGGAGGT	0.4
TCATACACGTGGGGTG	-0.2
GTTAACACGTGAGGCA	0.29
GCGTGCACGTGAGGTT	0.31
TTAAACACGTGAGGCG	0.34
TTCGACACGTGTGAGA	0.32
AGGTACACGTGGCGGC	0.04
TAGTGCACGTGGTGTC	-0.24
CTGTACACGTGGTTAT	0.01
TGAAACACGTGAGGGG	0.24
ACTATCACGTGTTGTA	0.14
GTTTTCACGTGGCGAT	0.28
GGCGTCACGTGATGCG	0.09
AGGTACACGTGGGGCC	-0.08
TTCCACACGTGTGTGG	0.08
GGTGTCACGTGGTTCT	0.08
TTGGTCACGTGATGAG	0.26
CGGAGCACGTGCTTGG	-0.09

Sequence	relative binding free energy [kcal/mol]
AGTTGCACGTGGTTCT	-0.17
TTGAACACGTGGTATG	-0.03
GTAAACACGTGAAGTT	0.49
GTGTCCACGTGCGGTT	0.09
TGTGGCACGTGAGGCT	0.14
TTCAGCACGTGTGTTT	0.02
CAGGGCACGTGGTGAA	-0.12
GGGGCCACGTGTTCAG	0.08
CGGCTCACGTGGTGAG	0.09
ATTGTCACGTGAGGAT	0.13
TATCTCACGTGATGTT	0.29
TATACCACGTGTAGTG	-0.06
TGGGACACGTGCATTG	-0.01
GCGAACACGTGGTGTG	-0.11
ATAGACACGTGCTAGG	0.09
TGGAGCACGTGGTACA	-0.12
TGTATCACGTGGTCGA	0.1
CGAGCCACGTGGTGGG	-0.2
ATTAACACGTGGGGTA	0.02
AGATTCACGTGGTGGA	0.25
AGTTGCACGTGGCTAT	-0.12
